Measured values: PMC10139999
No constants are given. Whether binding was seen depends on the method and setting. In cells and extracts the contact can be indirect. Some binding calls cover weakened binding; strength is not graded here.

Amino acid sequences for entries named in this document (tags omitted).
UniProt P61168: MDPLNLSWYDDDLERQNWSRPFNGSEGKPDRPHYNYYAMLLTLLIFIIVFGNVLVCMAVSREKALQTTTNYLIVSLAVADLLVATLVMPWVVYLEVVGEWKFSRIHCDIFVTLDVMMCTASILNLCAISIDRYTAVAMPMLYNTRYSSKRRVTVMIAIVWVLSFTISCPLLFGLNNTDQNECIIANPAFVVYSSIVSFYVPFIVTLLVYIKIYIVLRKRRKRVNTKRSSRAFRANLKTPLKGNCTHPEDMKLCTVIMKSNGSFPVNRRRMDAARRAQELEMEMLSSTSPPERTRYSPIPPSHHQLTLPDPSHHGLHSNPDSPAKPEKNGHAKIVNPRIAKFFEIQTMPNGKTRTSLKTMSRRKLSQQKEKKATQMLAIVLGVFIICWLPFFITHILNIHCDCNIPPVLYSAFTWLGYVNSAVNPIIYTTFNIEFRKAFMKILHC
UniProt Q61616: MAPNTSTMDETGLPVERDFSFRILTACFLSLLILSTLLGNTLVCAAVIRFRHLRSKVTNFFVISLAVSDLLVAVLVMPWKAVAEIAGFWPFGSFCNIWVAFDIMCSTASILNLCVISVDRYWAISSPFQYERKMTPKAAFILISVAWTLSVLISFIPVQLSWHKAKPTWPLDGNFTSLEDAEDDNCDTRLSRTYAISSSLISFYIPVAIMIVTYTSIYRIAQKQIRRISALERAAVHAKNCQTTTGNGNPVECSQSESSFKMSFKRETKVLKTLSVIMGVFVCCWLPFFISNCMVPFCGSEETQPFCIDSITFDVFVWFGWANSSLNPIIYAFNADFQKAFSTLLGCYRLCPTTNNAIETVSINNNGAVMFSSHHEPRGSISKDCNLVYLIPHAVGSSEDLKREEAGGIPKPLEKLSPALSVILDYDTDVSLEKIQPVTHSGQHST
UniProt P58406: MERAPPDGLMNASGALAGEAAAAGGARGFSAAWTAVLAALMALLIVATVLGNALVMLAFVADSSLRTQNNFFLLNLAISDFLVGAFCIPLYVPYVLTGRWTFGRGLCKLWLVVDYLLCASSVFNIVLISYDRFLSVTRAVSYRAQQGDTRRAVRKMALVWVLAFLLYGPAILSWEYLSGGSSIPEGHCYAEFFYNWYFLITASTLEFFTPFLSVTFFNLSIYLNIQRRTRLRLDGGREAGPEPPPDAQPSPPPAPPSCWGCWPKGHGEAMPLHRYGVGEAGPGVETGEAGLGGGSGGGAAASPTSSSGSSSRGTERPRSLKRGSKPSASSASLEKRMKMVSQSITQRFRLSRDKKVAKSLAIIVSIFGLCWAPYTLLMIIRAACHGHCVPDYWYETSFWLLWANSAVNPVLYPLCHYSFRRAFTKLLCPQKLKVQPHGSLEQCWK
UniProt O55242: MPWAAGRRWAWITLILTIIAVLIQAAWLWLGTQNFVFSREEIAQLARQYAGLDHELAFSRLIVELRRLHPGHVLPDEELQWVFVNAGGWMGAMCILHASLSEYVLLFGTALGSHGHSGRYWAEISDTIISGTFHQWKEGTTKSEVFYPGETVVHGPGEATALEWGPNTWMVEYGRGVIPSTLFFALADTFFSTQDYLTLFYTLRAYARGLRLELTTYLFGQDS

Columns and labels:
[1] = biological target: dopamine D2 receptor (mouse (endogenous in striatum)) (UniProt P61168); assay: co-IP; striatal lysates (500 μg) of naïve C57BL/6J mice in 20 mM Tris-HCl pH 7.4, 0.5% NP-40; precleared, anti-D1R, anti-D2R or anti-H3R antibody or isotype IgG overnight at 4 °C, protein A/G-agarose, three washes with lysis buffer; Western blot
[2] = biological target: dopamine D1 receptor (mouse (endogenous in striatum)) (UniProt Q61616); assay: as above
[3] = biological target: dopamine D2 receptor (mouse (endogenous in striatum)) (UniProt P61168); assay: proximity ligation; in situ PLA (Duolink) on free-floating fixed striatal sections of C57BL/6J mice with pairs of primary antibodies; single antibodies as negative controls; red puncta per nucleus
[4] = biological target: dopamine D1 receptor (mouse (endogenous in striatum)) (UniProt Q61616); assay: as above

| Molecule | binding [1] | binding [2] | binding [3] | binding [4] |
| --- | --- | --- | --- | --- |
| histamine H3 receptor (from UniProt P58406 1-445) | binds | binds | binds | binds |
| sigma receptor σ1R (from UniProt O55242 1-223) | – | – | binds | binds |
| sigma receptor σ2R (receptor, UniProt Q8VD00 1-176) MGALAARRCVEWLLGLYFVSHIPITLFIDLQAVLPPELYPQEFSNLLRWYSKEFKDPLMQEPPVWFKSFLLCELVFQLPFFPIAAYAFFKGSCRWIRIPAIIYAAHTITTLIPILYTLLFEDFSKAVAFKGQRPESFRERLTLVGVYAPYLIIPLILLLFMLRNPYYKYEEKRKKK | – | – | no binding | binds |
